# Among all 310,000 compounds or so, about 14,000 (4.5%) showed an effect of 50% or more. The effect is printed as a negative number. The list shows a part of the results.
# Biological target: human ether-à-go-go-related gene (hERG) potassium channel (human, UniProt Q12809)
# Assay: primary screen, population patch clamp on CHO cells stably expressing hERG
# 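Also: peak tail current of the secondary pulse compared with the same well before compound.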
# Sequence of human ether-à-go-go-related gene (hERG) potassium channel (Q12809 whole entry, looked up): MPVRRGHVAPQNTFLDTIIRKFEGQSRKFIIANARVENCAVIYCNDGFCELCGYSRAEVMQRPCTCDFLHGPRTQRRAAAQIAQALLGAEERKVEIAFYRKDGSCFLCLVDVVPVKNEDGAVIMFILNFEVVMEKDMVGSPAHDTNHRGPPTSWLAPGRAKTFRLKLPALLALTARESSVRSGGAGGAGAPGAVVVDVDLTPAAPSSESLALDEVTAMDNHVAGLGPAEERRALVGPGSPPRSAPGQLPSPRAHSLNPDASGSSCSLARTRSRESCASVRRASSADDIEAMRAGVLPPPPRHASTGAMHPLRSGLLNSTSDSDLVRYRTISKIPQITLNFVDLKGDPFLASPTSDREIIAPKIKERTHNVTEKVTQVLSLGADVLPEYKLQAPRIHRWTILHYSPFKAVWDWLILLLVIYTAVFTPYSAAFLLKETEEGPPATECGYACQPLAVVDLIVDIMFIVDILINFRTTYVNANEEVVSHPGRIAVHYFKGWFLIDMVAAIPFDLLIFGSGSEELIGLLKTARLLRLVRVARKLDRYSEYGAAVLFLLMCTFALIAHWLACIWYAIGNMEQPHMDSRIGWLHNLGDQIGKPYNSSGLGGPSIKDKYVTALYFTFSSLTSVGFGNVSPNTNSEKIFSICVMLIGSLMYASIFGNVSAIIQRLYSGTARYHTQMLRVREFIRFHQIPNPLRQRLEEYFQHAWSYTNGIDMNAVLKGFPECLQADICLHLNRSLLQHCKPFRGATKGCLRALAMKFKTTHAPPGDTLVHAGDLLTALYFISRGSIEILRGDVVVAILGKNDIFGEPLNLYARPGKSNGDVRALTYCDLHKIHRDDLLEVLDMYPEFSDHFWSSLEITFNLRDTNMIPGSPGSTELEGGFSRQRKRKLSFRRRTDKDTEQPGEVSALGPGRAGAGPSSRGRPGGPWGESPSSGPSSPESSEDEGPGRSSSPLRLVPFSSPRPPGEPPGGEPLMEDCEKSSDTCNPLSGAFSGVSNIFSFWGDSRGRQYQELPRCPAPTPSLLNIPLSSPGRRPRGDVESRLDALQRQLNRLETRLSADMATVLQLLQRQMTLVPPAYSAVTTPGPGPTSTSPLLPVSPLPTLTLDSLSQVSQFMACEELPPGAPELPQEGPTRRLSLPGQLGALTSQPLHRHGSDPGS
row,SMILES,"hERG current change (%, negative = inhibition) at 10uM [%]"
1,O=C(Nc1cccnc1)c1ccc(NS(=O)(=O)c2cccc([N+](=O)[O-])c2)cc1,1.53
2,O=C(CN1CCN(C(=O)c2ccccc2F)CC1)Nc1ccc(Br)cc1,-64.6
3,Cc1cc(NCc2ccncc2)ccc1Br.O=C(O)C(=O)O,-0.637
4,Cc1cccc(NC(=O)CN2CCN(C(=O)COc3cccc(Br)c3)CC2)c1C,-70.4
5,COc1ccc(NC(=O)CC2(CC(=O)O)CCCC2)cn1,16.7
6,CC(C)(C)NC(=O)Cn1nnc(-c2ccccc2Cl)n1,6.43
7,COc1ccccc1CNC(=O)c1ccccc1NC(=O)C1=C(C)OCCS1,4.46
8,Cc1ccc(/C=C/C(=O)O)cc1S(=O)(=O)NCc1ccco1,14.5
9,COc1ccccc1CN1CC(C(=O)N2CCCCO2)CCC1=O (stereo not shown),-65.7
10,CC(=O)c1cccc(S(=O)(=O)N2CCn3cccc3C2C)c1 (stereo not shown),-8.58
11,O=C(CSc1cccs1)Nc1cccc2ccccc12,-8.86
12,COc1ccccc1[C@@H]1C(c2cccc(Cl)c2)=NN(c2ccc(Br)cc2)[C@H]1C(=O)N1CCOC1=O,18.5
13,COc1ccc(/C=C/c2nnc(NC(=O)C(C)(C)C)s2)cc1,-27.2
14,Cc1ccc2nc(Nc3nc(CSc4nnnn4-c4ccccc4)cc(=O)[nH]3)nc(C)c2c1,-23.8
15,O=C(NCCCN1CCN(c2ccccc2F)CC1)C1CCC(=O)N1C1CCCCC1 (stereo not shown),-12.2
16,COc1ccc(Cc2nnnn2CC(=O)O)cc1,1.51
17,CC1(C)NC(=O)N(CC(O)COc2cc3ccccc3cc2C(=O)N2CCCCC2)C1=O (stereo not shown),-4.31
18,COC(=O)c1ccc(CO/N=C/c2ccccc2OC)cc1,19.3
19,Cc1c(Cl)cccc1NC(=S)N1CCC(C(N)=O)(N2CCCCC2)CC1,-16.5
20,CC1CCCC(NC(=S)Nc2cccc(S(=O)(=O)N(C)C)c2)C1C (stereo not shown),13.7
21,CN(C1CCS(=O)(=O)C1)S(=O)(=O)c1ccc(N2CCCC2=O)cc1 (stereo not shown),4.8
22,COCC(=O)N(c1ccccc1)C(C)C(=O)OC (stereo not shown),-4.9
23,COc1ccccc1CNC(=O)COc1ccc(S(=O)(=O)N2CCOCC2)cc1C,-18.5
24,Cl.O=C(CCN1CCN(c2ccccc2F)CC1)c1ccc(Br)cc1,-84.5
25,CCC(=O)OCC(=O)Nc1ccc2c(c1)OCO2,28.3

# From article PMC4336329 (PLoS ONE, 2015)
